ChEMBL document CHEMBL1201862, “PubChem BioAssay data set” (2004)
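Values below derive from 48-hour exposures of cells grown in 96-well plates, with endpoints linearly interpolated between the two concentrations bracketing the appropriate inhibition level. At the GI50, growth is halved.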 Calls of active or inactive are those of the source. Cut-off read from the data, not from the text of the source: active = GI50 up to about 1.1 µM and inactive = higher.

tested on: NCI-H322M; test: growth of human tumour cells (NCI), 48 h

| Compound | GI50 |
| --- | --- |
| CN(C)CC1CCC/C(=C\c2ccccc2)C1=O (centres undefined) | inactive: 18 µM |
| CSc1ncnc2c1cnn2CCCCO | inactive: > 100 µM |
| CCN(CC)CCNc1ccc2ncn3c4ccc(OC)cc4c(=O)c1c23 | inactive: 2.14 µM |
| COc1cc(OCCN(C)C)c2[nH]c(C(=O)N3CC(CCl)c4c3cc(N)c3ccccc43)cc2c1 (centres undefined) | active: < 0.01 µM |
| COc1ccc(-n2c(SC(CN3CCOCC3)CN3CCCC3=O)nc3ccccc3c2=O)cc1 (centres undefined) | inactive: > 100 µM |
| Cc1ccc(NP(=O)(Oc2ccccc2)N(CCCl)CCCl)cc1 (centres undefined) | inactive: > 100 µM |
| O=c1c(Cl)nsnc1Cl | inactive: 18.5 µM |
| CCCCCC(/C=N/NC(N)=S)C(O)(C(F)(F)F)C(F)(F)F (centres undefined) | inactive: > 10 µM |
| Cc1cn(C2CC(N)C(C(=O)NCC(=O)O)O2)c(=O)[nH]c1=O (centres undefined) | inactive: > 100 µM |
| N#Cc1ccc(Sc2nc3ccccc3[nH]2)cc1 | inactive: > 100 µM |
| O=C(NCCCl)NCc1ccccc1 | inactive: > 100 µM |
| O=NN(Cc1ccc(Cl)cc1)C(C(=O)O)c1ccccc1 (centres undefined) | inactive: > 100 µM |
| N#CNc1nc(N)c(-c2ccc(Cl)cc2)c(C(=O)Nc2nccs2)n1 | inactive: > 100 µM |
| O=[N+]([O-])c1ccc(SN=S=NSc2cccc(SN=S=NSc3ccc([N+](=O)[O-])cc3)c2)cc1 | inactive: 94.4 µM |
| O=c1[nH]c2c(nc1NC13CC4CC(CC(C4)C1)C3)c(=O)oc1ccccc12 | inactive: 92.5 µM |
| CCOC(=O)c1c(SCC#N)n(-c2ccccc2)c(=S)n(-c2ccccc2)c1=O | inactive: > 100 µM |
| O=C1NC(Cc2ccccc2)C(=O)N2CCCC12 (centres undefined) | inactive: > 100 µM |
| Cc1ccc(/C(=C/C=C(C#N)C#N)Sc2cc(Cl)ccc2Cl)cc1 | inactive: 17.4 µM |
| Cc1ccc(C)c(NC(=O)c2cc(-c3ccc([N+](=O)[O-])cc3)nc(N)n2)c1 | inactive: > 100 µM |
| CCOc1cc2c(cc1O)CC[C@@H]1[C@@H]2CC[C@]2(C)C(N)CC[C@@H]12 (some centres undefined) | inactive: 3.93 µM |
| N#CC1C=Cc2ccccc2N1C(=O)Oc1ccccc1 (centres undefined) | inactive: 49 µM |
| Cc1ccc(C2(c3ccc(Cl)cc3)c3ccccc3C3=NCCN32)cc1 (centres undefined) | inactive: 8.87 µM |
| CCOC(=O)c1nc2ccc(C(F)(F)F)cc2nc1Nc1ccc(Cl)c(Cl)c1 | inactive: > 100 µM |
| Nc1ccc2c(c1)C(=O)c1ccc(F)cc1-2 | inactive: > 100 µM |
| COC1C(OC(=O)c2ccc(C)[nH]2)C(O)C(Oc2ccc3c(O)c(NC(=O)c4c[nH]c(C(=O)Nc5c(O)c6ccc(OC7OC(C)(C)C(OC)C(OC(=O)c8ccc(C)[nH]8)C7O)c(C)c6oc5=O)c4C)c(=O)oc3c2C)OC1(C)C (centres undefined) | inactive: 2.8 µM |

| Compound | GI50 |
| --- | --- |
| O=C1C(=O)N(C23CC4CC(CC(C4)C2)C3)C(=S)N1c1ccccc1 | inactive: > 100 µM |
| CCN(CC)c1oc(N(CC)CC)c(C(=O)Nc2ccccn2)c(=O)c1C(C)=O | inactive: > 100 µM |
| COC(=O)C1(C)C=C(Nc2ccccc2)C(=O)N1c1ccccc1 (centres undefined) | inactive: > 100 µM |
| O=C(CCc1ccccc1)On1nnc2ccccc2c1=O | inactive: > 100 µM |
| Cc1nnc2n1N=C(c1ccccc1)C(c1ccccc1)S2 (centres undefined) | inactive: 41.5 µM |
| COc1ccc(C2(CN(C)C)COc3cc(OC)c(OC)cc3C2=O)cc1OC (centres undefined) | inactive: > 100 µM |
| CCOC(=O)C1=C(c2ccccc2)C12N(Cc1ccccc1)C(=O)C2(c1ccccc1)c1ccccc1 (centres undefined) | inactive: > 100 µM |
| COC1(OC)CCCc2c1no[n+]2[O-] | inactive: > 100 µM |
| CCOC(=O)C(C(N)=O)C1=Nc2cc([N+](=O)[O-])ccc2N/C1=C\C(=O)c1ccccc1 (centres undefined) | inactive: 22.2 µM |
| NC(=S)N/N=C\CC(O)(C(F)(F)F)C(F)(F)F | inactive: > 10 µM |
| COC(=O)C1CCC(=O)N1C(c1ccc2c(c1)OCO2)c1cc(OC)c(OC)c(OC)c1 (centres undefined) | inactive: > 100 µM |
| CC1=NNC(=O)C1C1CC(c2c[nH]c3ccccc23)=NN=C1Cl (centres undefined) | inactive: > 100 µM |
| CC(C)(C)n1c(=O)n(-c2ccccc2)n(C(C)(C)C)c1=O | inactive: > 100 µM |
| Cc1ccc(OCC2OC(n3cnc4nc(N)nc(Cl)c43)CC2Oc2ccc(C)cc2)cc1 (centres undefined) | inactive: 19.1 µM |
| C/C=C/C=C/C=C/C=C/C(=O)O | inactive: > 100 µM |
| O=C(NC/C(Cl)=C/Cl)Nc1c2ccccc2nc2ccccc12 | inactive: > 100 µM |
| C=C(C)CC1(O)C(=O)C(OCC)=C1OCC (centres undefined) | inactive: > 100 µM |
| O=C(Nc1cccc([N+](=O)[O-])c1)c1nnn(-c2cccc([N+](=O)[O-])c2)c1O | inactive: > 100 µM |
| CC(C)=CC(=O)O[C@@H]1CC(C)(C)CC2C3=CCC4[C@]56CC[C@](O)(OC5)C(C)(C)C6CC[C@@]4(C)C3(C)CC[C@]21C(=O)O (some centres undefined) | inactive: 89.5 µM |
| Nc1ccn(C=C=CCO)c(=O)n1 | inactive: > 100 µM |
| Cc1ccc2[nH]c(Sc3c([N+](=O)[O-])ncn3C)nc2c1 | inactive: 28.4 µM |
| O=C1c2ccc3c4ccc5c6c(ccc(c7ccc(c2c37)C(=O)N1CCN1CCCCC1)c64)C(=O)N(CCN1CCCCC1)C5=O | inactive: > 100 µM |
| OCC1CCC(n2cnc3c(O)ncnc32)O1 (centres undefined) | inactive: > 100 µM |
| COc1ccc(-c2oc3cc(OC(C)=O)cc(OC(C)=O)c3c(=O)c2OC)cc1 | inactive: 25.4 µM |
